Data on 19 variants can be found in the RNAGym collection of RNA variant scans (doi:10.1073/pnas.2313332121).

This sample is rich in variants without activity. Where only a bound is given, the exact number is not on record here.

B1: TPR 5TU (parent)
chain: GGAUCUUCUCGAUCUAACAAAAAAGACAAAUCUGCCACAAAGCUUGAGAGCAUCUUCGGAUGCAGAGGCGGCAGCCUUCGGUGGCGCGAUAGCGCCAACGUUCUCAACUAUGACACGCAAAACGCGUGCUCCGUUGAAUGGAGUUUAUCAUG

In the data set the parent is B1. Put plainly: polymerase ribozyme fitness, log enrichment relative to wild type (log ratio); higher = more active; in vitro selection for triplet polymerase activity. The method, boiled down: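 The heterodimeric triplet polymerase ribozyme's subunits were each mutagenized into PCR-built libraries and transcribed. Every library was selected once, in triplicate, by annealing with a biotinylated primer, the partner subunit and triplets, incubating frozen at −7 °C, gel-excising extended constructs, capturing on streptavidin beads and running RT-PCR. Input and output libraries were Illumina-sequenced, with genotypes kept only at ≥10 input reads and ≥1 read per output. Fitness, from inverse-variance-weighted replicate averages, is the base-2 logarithm of genotype enrichment over wild-type enrichment.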
As to GGAUCUUCUCGAUCUAACCAAAAAGACAAAUCUGCCACAAAGCUUGAGAGGAUCUUCGGAUGCAGAGGCGGCAGCCUUCGGUGGCGAGAUAGCCCCAACGUUCUCAACUAUGACACGCAAAACGCGUGCUCCGUUGAAUGGAGUUUAUCAUG [A19C C51G C87A G94C], the “polymerase ribozyme fitness (log ratio)” value was at most -4.2. The value for GGAUCUUCUCGAUCUAACCAUAAAGACAAAUCUGCCACACAGCUUGAGAGCAUCUUCGGCUGCAGAGGCGGCAGCCUUCGGUGGCGCGAUAGCGCGAACGUUCUCAACUGUGACACGCAAAACGCGUGCUCCGUUUAAUGGAGUUUAUCAUG [A19C A21U A40C A60C C96G A110G G136U] was at most -4.2; that for GGAUCUUCUCGAUCUAACCUAAAAGACAAAUCUGCCACAAAGCUUGAGAGCAUCUUCGGAUGCAGAGGCGGCAGCCUUCGGUGGUGCGAUAGCGCCAACGUUCUCAACUAUGACACGCAAAACGCGUGCUCCGUUAAAUGGAGUUUAUCAUG [A19C A20U C85U G136A] was -0.21; that for GGAUCUUCUCGAUCUAACCAAAAAGACAAAUCUGCCACAAAGCUUGAGAGCAUCUUCGGAUGCAGAGGAGGCAGCCUUCGGUGGCGCGAUAGCGCCAACGUUCUCAACUAUGACACGCAAAACGCGUGCGCCGUUGAAUGGAGUUUAUUAUG [A19C C69A U130G C149U] was at most -4.2.

Regarding GGAUCUUCUCGAUCUAACCAAAAAGACAAAUCUGCCACUAAGCUUGAGAACAUCAUCGGAUGCAGAGGCGGCAGCCUUCGGUGGCGCGAUAGCGCCAACGUUCUCAACUAUGACACGCAAAACGCGUGCUUCGUGGAAUUGAGAUUAUCAUG [A19C A39U G50A U55A C131U U135G G140U U144A], the “polymerase ribozyme fitness (log ratio)” value was at most -4.2.

With GGAUCUUCUCGAUCUAACCAAAAAGACAAAUCUGCCCCAGAGCUUGAGAGCAUCUUCGGAUGCAGAGGCGGCAGCCUUCGGUGCCGCGAUAGCGCCAACGUUCUCAACUAUGACACGCAAAACGCGUGCUCCGUUGAAUUGAGUUUAUCAUG [A19C A37C A40G G84C G140U], the “polymerase ribozyme fitness (log ratio)” value is at most -4.2. The value for GGAUCUUCUCGAUCUAACCAAGAAGACAAAUCUGCCACAAAGCUUAAGAGCAUCUUCGGAUGCAGAGGCGGCAGCCUUCGGUGGCGCGAUAGCGACAACGCUCUCAACUAUGACACGCAAAACGUGUGCUCCGUUGAAUCGAGUUUAUCAUG [A19C A22G G46A C95A U101C C125U G140C] was at most -4.2; that for GGAUCUUCUCGAUCUAACCGACCAGACAAAUCUGCCACAAAGCUUGAGUACAUCUUCGGAUGCAGAGGCGGCAGCCAUCGGUGGCGCCAUAGCGCCAACGUUCUCAACUAUGACGCGCAAAACGCGUGCUCCGUUGAAUGGAGUUUAUCGUG [A19C A20G A22C A23C A49U G50A U77A G88C A115G A150G] was at most -4.2; that for GGAUCUUCUCGAUCUAACCAAAAAGACAUAUCUGCCACAAAGCUUGAGAGCAGCUUCGGAUGCAGAGGCGGCAGCCUUCGGUGGGGCGAUAGCGCCAACGUUCUCAACUAUGAGACGCAAAACGCGUGCUCCGUUGAAUGGAGUUCAUCAUG [A19C A29U U53G C85G C114G U146C] was at most -4.2.

Consider GGAUCUUCUCGAUCUAACCAAAAUGACAAAUCUGGCAUAAAGCUUGAGAGCAUCUUCGGAUGCAGAGGCGGCAGGCUUCGGUGGCGCCAUCGCGCCAGCGUUCUCAACUAUGACACGCAAAACGCGUGCUUCGUUGAAUGGAGUUUAUCAUG [A19C A24U C35G C38U C75G G88C A91C A98G C131U], for which the “polymerase ribozyme fitness (log ratio)” value is at most -4.2. The figure for GGAUCUUCUCGAUCUAAUAAAAAAGACAAAUCUGCCACAAAGCUUGAGAGCAUCUGCGAAUGCAGAGGCGGCAGCCUUCGGUGGCGCGAUAGAGCCAACGUUCUCAACUAUGACACGCAAAACGCGUGCUCCGUUGGAUGGAGUUUGUCAUG [C18U U56G G59A C93A A137G A147G] is at most -4.2. The figure for GGAUCUUCUCGAUCUAAUAAAAAAGACAAAUCUGCCACAAAGCUUGAGAGCAACUACGGAUAUAGAGGCGGCAGCCUUCGGUGGCGCGUUAGUGCCAACGUCCUCAACUAUGACACGCAAAACGCGUGCUCCGUUGAAUGGAGUUUAUCAUG [C18U U53A U56A G62A C63U A89U C93U U102C] is at most -4.2. For the variant GGAUCUUCUCGAUCUAACCGAUAAGGCAAAUCUGCCACAAAGCUUGUGAGCAUCUUCGGAUGUAGAGGCGGCAGCCUUCGGUGGCGCGAUAGCGCCAACGUUCUCAACUAUGACACGCAAAACGUGUGCUCCGUUGAAUGGAGUUUAUCAUG [A19C A20G A22U A26G A47U C63U C125U], the “polymerase ribozyme fitness (log ratio)” value was at most -4.2.

As to GGAUCUUCUCGAUCUAAUAAAAAAGACAAAUCUGCCACAAAGCUUGAGAGCAUCAUGGGAUGCAGUGGCGGCAGCCUUCGGGGGCGCGAUAGCCCCAACGUUCUCAACUAUGUCACGCAAAACGCGUGCUCCGUUGAAUGGAGUUUAUCAUG [C18U U55A C57G A66U U82G G94C A113U], the “polymerase ribozyme fitness (log ratio)” value is at most -4.2. The figure for GGAUCUUCUCGAUCUAACCAAAAAGACAAAUCUGCCACAAAGCUUGAGAGCAUCUUCGGAUGCAGAGGCGGCAGCCUUCGGUGGCGCGAUCGCGCCAACGUUCUCAACUAUGACACGGAAAACGCGUGCUCCGUUGAAUGGCGUUUAUCAUG [A19C A91C C118G A142C] is at most -4.2; for GGAUCUUCUCGAUCUAAUAAAAAAGACAAAUCUGCCACAAAGCUUGAGAGCAUCUUCGGAAGCAGAGGCGGCAGCCUUAGGUGGCGCGAUAGCGCCAACGUUCUCAACUAUGACACGCAGAACGCGUGCUCCGUUGAAUGGAGUUUAUCAUG [C18U U61A C79A A120G] it is at most -4.2. For GGAUCUUCUCGAUCUAACCAAAAAGACAAAUCUGCCACAAAGCUUGAGAGCCUCUACGGAUGCAGAGGCGGUAGCCUUCGGUGGCUCGAUUGCGCCAACGUUCUCAACUAUGACACGCAAAACGCAUGCUCCGUUGAAUGGAGUUUAUCAUG [A19C A52C U56A C72U G86U A91U G126A], the “polymerase ribozyme fitness (log ratio)” value is at most -4.2. The value for GGAUCUUCUCGAUCUAACCAAAAAGACAAAUCUGCCACAUAGCUUAAGAGCAUCUUCGGAUGCAGAGGCGGCAGCCUUCGGUGGCGCGAUAGCGCCAACGUUCUCAACUAUGACACGCAAAACGCGUGCUCCGUUGAAUGGAGUUUAUCAUG [A19C A40U G46A] was -0.204; that for GGAUCUUCUCGAUCUAACCAAAAAGACAAAUCUGCCACAAAGCUUGAGAGCGUCUUCGGAUGCAGAGGCGGCAGCCUUCGGUGGCGCAAUAGCGCCAACGUUCUCGACUAUGACACGCAAAACGCGUGCUCCGUUGAAAGGAGUUUAUCAUG [A19C A52G G88A A106G U139A] was at most -4.2.
